Measurements reported in the supplement of paper PMC3334620.
Over roughly 33,000 sequences, “E-score (-0.5 to 0.5)” has its median near -0.041; the highest 2% begin near 0.37. The list shows a part of the results.

Biological target: T1, Ecm22 (UniProt Q05958)
T1 sequence: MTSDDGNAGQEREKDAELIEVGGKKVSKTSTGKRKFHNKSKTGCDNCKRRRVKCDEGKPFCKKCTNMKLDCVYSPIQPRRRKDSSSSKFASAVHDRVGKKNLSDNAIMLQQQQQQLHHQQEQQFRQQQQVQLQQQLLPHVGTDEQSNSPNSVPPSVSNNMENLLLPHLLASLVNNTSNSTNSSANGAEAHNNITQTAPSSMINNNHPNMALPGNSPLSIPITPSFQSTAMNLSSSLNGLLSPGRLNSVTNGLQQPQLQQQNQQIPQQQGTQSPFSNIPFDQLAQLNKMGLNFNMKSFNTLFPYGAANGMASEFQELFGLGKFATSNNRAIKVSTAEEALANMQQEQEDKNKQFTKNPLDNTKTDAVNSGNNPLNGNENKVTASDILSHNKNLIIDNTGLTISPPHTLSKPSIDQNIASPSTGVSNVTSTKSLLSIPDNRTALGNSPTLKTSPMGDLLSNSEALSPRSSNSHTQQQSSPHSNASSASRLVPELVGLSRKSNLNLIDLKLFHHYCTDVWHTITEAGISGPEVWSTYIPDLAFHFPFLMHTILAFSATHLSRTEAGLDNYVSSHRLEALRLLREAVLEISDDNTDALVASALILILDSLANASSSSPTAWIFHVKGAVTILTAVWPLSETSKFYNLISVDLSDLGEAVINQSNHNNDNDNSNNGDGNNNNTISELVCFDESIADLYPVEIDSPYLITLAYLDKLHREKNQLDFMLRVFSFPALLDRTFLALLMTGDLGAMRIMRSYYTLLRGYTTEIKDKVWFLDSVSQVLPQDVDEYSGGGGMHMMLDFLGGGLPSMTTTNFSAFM
Assay: PBM E-score (8-mer binding enrichment) (E-score (-0.5 to 0.5)); higher = stronger / more preferred TF binding; most listed sequences are background and not binding sites
Settings: protein concentration: 200 nM; construct: GST-full length
Summary of the method: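 The E-score, a modified Wilcoxon-Mann-Whitney statistic, was computed by the Universal PBM Analysis Suite for every ungapped eight-base word pooled with its reverse complement. Scans behind it were normalised with masliner after bound GST-tagged yeast transcription factors were detected with fluorescent anti-GST. The proteins, at about 100-200 nM, had been applied to universal all-10-mer Agilent arrays made double-stranded by primer extension.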

Sequence	PBM E-score
ATGCCGTG	-0.166
ACGAGAGT	0.328
CAATCGAC	-0.249
AGCTTAGC	-0.131
AAAGCTGA	-0.21
GTTATTTA	0.101
AGGTTTCC	-0.187
CTCCTCCA	-0.113
AGAGGAAC	0.00169
ATGAATAG	0.174
AGCGTTAG	-0.102
CCCTTAGG	-0.159
GTGAAAAA	-0.0736
AGACGGTG	-0.132
CAGCAATG	-0.198
CAAGACAG	-0.297
ACGAGTTC	0.319
CTACCTTC	-0.0409
ACACAGAT	-0.115
CCCAGCGA	-0.105
GGCCAACA	-0.0839
GCCGCCGC	-0.202

Sequence	PBM E-score
ATGCCGAC	-0.00097
CTACTAAC	-0.00374
ACCTCTCA	-0.271
ATGGGGAC	-0.248
CATGATTA	0.154
AACGCCAC	-0.0427
CAAAGACG	-0.129
AAAGCAGC	-0.105
CTCATCGA	-0.0607
ACTACCCG	-0.00235
GAACGCGC	0.313
GCGACGAC	0.0579
AGAGTGGA	-0.188
CCATAGAG	-0.273
GAGACCTA	0.00975
GCCGTTCA	0.229
ACCACAAT	0.0332
AATTCATG	0.0523
GCGGATCC	0.016
CCACAAGG	-0.279
CCACTAGC	-0.199
CACCGATC	0.0383

Sequence	PBM E-score
CAATGCCC	-0.149
ACTCACAA	-0.137
AGGTGAAA	0.0593
AGTTGTAT	-0.031
ATTACGGG	0.0111
GATACGGA	0.285
CTACGGAC	-0.07
ATTGGCAC	-0.0954
GAGCGTTA	-0.0224
GAATATGC	0.114
GCAAGCCA	-0.0477
TAAGATCA	-0.0601
AGACACCA	0.0308
ACCCCGCA	-0.0609
AGAGTACA	-0.145
CCTGTTGA	-0.207
AGGCAAAT	-0.0149
AAAAACAG	-0.0439
AACGGAAC	0.317
TCGACCCA	-0.0248
ATGCATGC	-0.149
GACTTGCA	-0.049

Sequence	PBM E-score
AGCAATAA	-0.127
AGATCGCT	0.0294
ATTCAAAT	-0.12
CTCGCTAA	0.337
AGTGCTGG	-0.152
GCCAGACA	-0.0174
GGTGTCAC	-0.161
CTACTGAC	-0.125
ATACCGGG	-0.0133
AGGCGAGG	0.0681
ACAAACTG	-0.00036
ATGTTATC	-0.0316
CGGGAAGA	0.21
ATTCTCTG	-0.141
GAGCTATA	-0.11
CGCCTCCG	-0.124
AGTTATCA	-0.0889
AGAACTAT	0.109
ACCCGAGC	0.284
TGTATCAA	-0.0485
GCCGCTGA	-0.11
AATGCTGA	-0.208

Sequence	PBM E-score
GACCCTCA	-0.297
GTATAAGA	0.311
CGAAGTCC	0.0262
ATATACGC	0.299
TGCCCGCA	0.052
AGCTTACG	0.248
CCCACCTC	-0.0565
GAGACAGC	-0.104
CCAAGTCG	0.12
GCAGATAA	-0.0358
AATTATGA	0.0174
CGAACTGA	0.0518
CGCCACTA	-0.208
CGGAGACG	0.174
GAACTCCA	-0.195
TCCACAGA	-0.222
CGCCTAAG	-0.024
ATCGTGCG	0.228
AAACGCGC	0.0568
CGTGTGCA	-0.0516
CAAGTGGG	-0.159
CACCCGTC	-0.192
